# Data from paper PMC12040169 (PLOS Biology, 2025).
# The list shows a part of the results.
# System: T1, C. trachomatis L2/434/Bu expressing GFP (CTL2-GFP)
# T1 construct: L2/434/Bu GFP intracellular growth in HeLa cells
# Set-up: species or system HeLa; C. trachomatis total inclusion area by high-content imaging, normalised to DMSO
# Conditions: total inclusion area; 28.5 h, 10 µM; inhibitor
# In short: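 After bulk GFP and resorufin fluorescence reads, cells were fixed, stained with Hoechst and imaged by high-content microscopy. Inclusion area and number (GFP) stood in for chlamydial growth, nuclei count (Hoechst) for host cell viability. MICs were derived as for the bulk readout.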
row,Structure (SMILES),% of control remaining
1,Cc1cc(C)nc(N2CCC(c3cc(CCOc4cccc(C(F)(F)F)c4)[nH]n3)C2)n1 (stereo not drawn) [CBK285568],96.8363
2,Cc1cccc(C2(O)CCN(CC(O)c3ccc4c(c3)CCC4)CC2)c1 (stereo not drawn) [CBK286330],106.215
3,CC1(CNS(=O)(=O)Cc2cc(F)cc(F)c2)COC1 [CBK281413],89.8548
4,CC(C)NS(=O)(=O)c1ccc(OCC(=O)Nc2ccc3c(c2)OCO3)c(Cl)c1 [CBK267919],106.824
5,CC(=O)c1cccc(-c2cnc(N)c(-c3ccc(O)cc3)n2)c1 [CBK122508],102.959
6,CN1C(=O)COc2ccccc2C/C=C/C[C@@H]2[C@H]1CCCN2C(=O)CCCNc1ncccn1 [CBK292168],106.769
7,Cc1ccc2c(c1)C(NC(=O)C1CCN(S(C)(=O)=O)CC1)CC(C)(C)O2 (stereo not drawn) [CBK307604],57.6791
8,CC(C)NC(=O)[C@H]1CN2CCC1C[C@@H]2Cn1cc(C2(O)CCCC2)nn1 (stereo partly drawn) [CBK289090],109.445
9,Cc1cc(Cl)cc(Cl)c1OCCCc1c(C)n[nH]c1C [CBK025733C],28.1784
10,O=C(NCc1ccco1)c1nn(-c2nc3ccccc3s2)c2ccccc12 [CBK048482],123.996
11,Oc1cccnc1N1CCNCC1 [CBK045850],48.0979
12,Clc1ccc(SCc2cccc(CSc3ccc(Cl)c(Cl)c3)n2)cc1Cl [CBK223404],90.5178
13,O=C(Nc1ccccc1N1CCN(C(=O)c2ccc(Cl)cc2)CC1)c1ccc(-c2cc3ccccc3oc2=O)cc1 [CBK267280],111.56
14,c1ccc(-c2ccccc2CN2CCC(Oc3nccnc3OCCN3CCOCC3)CC2)cc1 [CBK082924T],81.8985
15,Cc1[nH]c2ccccc2c1C(=O)CSc1nncc2ccccc12 [CBK297912],88.7797
16,Oc1c(Cl)cc(Cl)cc1/C=N/c1ccc(-c2nc3ccc(/N=C/c4cc(Cl)cc(Cl)c4O)cc3[nH]2)cc1 [CBK261660],109.12
17,O=C(c1cccc2ncccc12)N1CCN(CC2CCOC2)CC1 (stereo not drawn) [CBK305140],47.5479
18,N=C(N)NC(=N)NCCc1c[nH]c2ccccc12 [CBK267706G],82.0213
19,CSc1nc(=O)c(CCC(=O)O)n[nH]1 [CBK019689],72.977
20,CC(C)(C)C1=CC2=NC3(CCC3)[C@@H]3C[C@@H](O)[C@@H](O)[C@@H]3N2O1 [CBK303243],92.1149
21,CCCc1[nH]nc(O)c1Cc1cc(C(F)(F)F)ccc1Cl [CBK075032],80.7239
22,Cc1cccc(OCC(=O)NCCCc2ccccc2)c1C [CBK265507],97.992
23,COc1ccc(Sc2nc3ccccc3nc2N2CCCC2)cc1OC [CBK093797],108.99
24,COC(=O)c1ccccc1NC(=O)CN(C)S(=O)(=O)c1c(C)cc(C)cc1C [CBK266241],103.065
25,C=C(C)CNC(=O)c1ccc(C)nc1N1CCN(C(=O)c2ccco2)CC1 [CBK076401],80.3671
26,OCCSCc1ccc2nonc2c1 [CBK020617],25.2771

row,Structure (SMILES),% of control remaining
1,CCn1c2ccccc2c2cc(NC(=O)C(C)Sc3n[nH]c(=O)n3C3CC3)ccc21 (stereo not drawn) [CBK296636],91.6252
2,CC(C)(CO)CNc1cncc(-c2cccc(Cl)c2)n1 [CBK037862],74.3487
3,O=C(c1ccc2c(c1)OCO2)N1CCN(C(=O)c2ccc(Cl)cc2F)CC1 [CBK296685],114.581
4,CCn1c(COc2ccc(Cl)c3cccnc23)nnc1SC [CBK266611],106.572
5,CCn1c(=O)n(CC(=O)N2CCCC2)c2cccnc21 [CBK283904],85.6986
6,O=C(O)C(Cc1c[nH]cn1)N1C(=O)C2CC=C(Cl)CC2C1=O (stereo not drawn) [CBK286871],85.5506
7,CCOC(=O)CNS(=O)(=O)c1ccc(-c2ccccc2)cc1 [CBK034435],84.2243
8,O=c1ccc2cccc(OCCO)c2o1 [CBK149730],75.395
9,Cc1cc(-c2ccc(=O)n(CCNC(=O)C3CCC3)n2)c(C)o1 [CBK284520],70.8399
10,O=C(NC(c1ccccc1)c1ccco1)C1CCN(CCc2c[nH]c3ccccc23)CC1 (stereo not drawn) [CBK148290],105.791
11,CC(=O)N1CCc2cc(-c3cc4cc(C)ccn4c3)ccc21 [CBK285228],112.004
12,O=C(O)c1cccc(NS(=O)(=O)c2ccc3c(c2)OCCO3)c1 [CBK155697],104.365
13,CCCc1ccc(S(=O)(=O)Nc2ccc(C(=O)N3CCN(C)CC3)cc2)cc1 [CBK034547],95.9161
14,O=C(Nc1cccc(Cl)c1Cl)N1CCC(n2c(=O)[nH]c3ccccc32)CC1 [CBK149856],93.0045
15,Cc1cc(Oc2ccccc2)nc(Oc2ccc(=O)n(-c3ccccc3)n2)n1 [CBK269843],81.5585
16,O=[N+]([O-])c1ccc(CSc2nnc(-c3cccs3)n2Cc2ccco2)cc1 [CBK267588],91.377
17,COCCNc1nc(-c2cccc(C(N)=O)c2)cnc1N [CBK063901],97.7651
18,Cc1cc(COc2nccnc2N2CCN(Cc3ccc([N+](=O)[O-])cc3)CC2)no1 [CBK084189],75.8107
19,COc1ccc(Cl)cc1NC(=S)NCCn1cc(Cl)cn1 [CBK267063],125.262
20,O=C(CN1CCN(Cc2ccc3c(c2)OCO3)CC1)Nc1ccc(Cl)cc1C(=O)c1ccccc1 [CBK264241],95.3634
21,COc1cc(C(=O)Nc2cc(-c3nc4ncccc4o3)ccc2C)cc(OC)c1OC [CBK101133],116.835
22,Cn1c(NC(=O)c2ccccc2[N+](=O)[O-])cc(=O)n(C)c1=O [CBK294417],119.381
23,O=C(OCc1nc2ccccc2[nH]1)N1CCOCC1 [CBK200146],93.8672
24,CNC(=O)c1sc2ccccc2c1C1CCN(Cc2cnc(-c3ccc(C)cc3)nc2)C1 (stereo not drawn) [CBK285883],70.7643
25,CN(C)C(=O)c1ccc(-c2ccc(OC3CCN(C(=O)CCC(=O)N4CCCC4)CC3)nc2)cc1 [CBK155051],79.8399
26,O=C1/C(=C/c2ccc(OCc3cccc([N+](=O)[O-])c3)cc2)SC(=S)N1CCc1ccccc1 [CBK264641],106.353

row,Structure (SMILES),% of control remaining
1,O=C(c1cccnc1)N1CCCC(n2cnc3cc(F)ccc32)C1 (stereo not drawn) [CBK284474],110.465
2,O=C(Nc1ccc(-c2noc(COc3ccc(Br)cc3)n2)cc1)c1ccc2c(c1)OCO2 [CBK266692],94.1617
3,CCC(Oc1nc2ccccc2nc1-c1ccccc1NC(C)=O)C(=O)c1ccccc1 (stereo not drawn) [CBK267315],77.1004
4,CCN1CCN(C(=O)c2cccc(N(C)C)c2)C(Cc2ccc(-c3ccncc3)cc2)C1=O (stereo not drawn) [CBK285813],102.195
5,CC(C)(C)c1nn(CC2CCCCC2)c(=N)s1 [CBK075042],45.4777
6,O=C(Nc1ccc(S(=O)(=O)Nc2ccc(Cl)c(C(F)(F)F)c2)cc1)c1ccc(CN2CCOCC2)cc1 [CBK264777],73.9921
7,c1cnc(NCc2cc3n(n2)CCN(CC2CCCCC2)C3)cn1 [CBK307592],73.6887
8,CCC(CC)C(=O)N1c2ccccc2C(C)(c2ccccc2)CC1(C)C (stereo not drawn) [CBK073862],43.7295
9,CC(NC(=O)c1ncoc1-c1ccccc1Cl)c1ccccn1 (stereo not drawn) [CBK282409],135.552
10,CC(c1ccc(S(C)(=O)=O)cc1)N(C)C(=O)COc1ccc2ccccc2c1 (stereo not drawn) [CBK296738],107.661
11,CC(=O)N1CCc2sccc2C1c1ccc(NCc2ccc(F)c(F)c2)cc1 (stereo not drawn) [CBK286452],101.944
12,O=[N+]([O-])c1cccc(/C=N/Nc2nc(-c3ccccc3)cc(-c3ccccc3O)n2)c1 [CBK261722],97.7936
13,Cc1cc(C)cc(NC(=O)CSc2ncccn2)c1 [CBK287577],107.162
14,C=CCc1cc(C)cc(C)c1OCCN1CCN(CC)CC1 [CBK267392G],115.747
15,CC(=O)NC(N(C)S(=O)(=O)c1ccc(C)cc1)C(Cl)(Cl)Cl (stereo not drawn) [CBK262662],98.5368
16,CC(C)(C)c1ccc(OCC(O)CNS(=O)(=O)O)cc1 (stereo not drawn) [CBK261169N],84.2913
17,CCC(=O)N1CCc2cc(C(O)CN3CCCCC3C)ccc21 (stereo not drawn) [CBK283112],111.319
18,COc1ccc([C@@]23CC[C@@H](NC(=O)CNc4ccc(Cl)c(Cl)c4)C[C@@H]2N(C)CC3)cc1OC [CBK038220],61.5076
19,Cc1nc(C(=N)N)nc2ccccc12 [CBK010368C],46.6357
20,CC(=O)c1ccc(C(=O)Nc2sc3c(c2C#N)CCN(C(C)=O)C3)cc1 [CBK304418],78.0069
21,Cc1ccc(/C=C2\SC(=S)N(CC(=O)Nc3cccc(C(=O)O)c3)C2=O)cc1 [CBK263935],102.764
22,Cc1csc(-c2ccc(C(=O)N3CCN(C)CC3)c(N3CCOCC3)n2)c1 [CBK106195],83.7701
23,CC(C)(C)C1CCC(=NNC(=O)c2ccc(CN3CCOCC3)cc2)CC1 (stereo not drawn) [CBK018812],97.5993
24,Cc1nnc2ncc(-c3ccccc3C(=O)N(C(C)C)C(C)C)cn12 [CBK307393],108.295
25,O=C(CC(CC(=O)c1ccc(Cl)cc1)c1ccccc1C(=O)O)c1ccc(Cl)cc1 [CBK265604],100.005
26,CCCCN(C(=O)c1cc(C)nc2ccccc12)c1ccccc1 [CBK296926],90.3408
